Experimental findings from publication PMC10668032 are described below.

This is one part of the list. At the low end of the ranking the order means little.

This assay deals with SIX1-Q177R homeodomain (UniProt Q15475). Nature of the assay: universal protein binding microarray. The conditions noted are these: Universal all-10-mer PBM (8x60K, AMADID 030236), 300 nM GST-tagged protein, Alexa Fluor 488 anti-GST; buffer, salt, pH and temperature not stated; high values mean tight binding; most listed sequences are background and not binding sites; double strand, one strand shown.
As to TAACAAGA, the binding signal is -0.232 E-score. For TGCTAGCA, the binding signal came out at 0.0725 E-score. To CATACCTC belongs -0.0402 E-score; to CACAAAAA, -0.00359 E-score. For the sequence CGGAATCA, the binding signal was -0.0125 E-score. For TATTGTAA, the binding signal is -0.0985 E-score.

AACGGTCT: the binding signal was -0.0786 E-score.

For the sequence CCTGGTGA, the binding signal stood at 0.114 E-score. Turning to CAGACAAC, the binding signal was 0.0599 E-score. In the case of AGTTACAC, the binding signal came to 0.449 E-score. To ACCGTGCG belongs 0.142 E-score.

As to AGGAGTGG, the binding signal was 0.11 E-score. Take GGCTCTAC: the binding signal is -0.135 E-score. To AAACCCCC belongs 0.24 E-score; to AAGTATGC, -0.0659 E-score. In the case of TCCTCCGA, the binding signal worked out at 0.0575 E-score. On to ACGTATGG, for which the binding signal is -0.207 E-score.

As to CTCTCAAC, the binding signal is 0.121 E-score. With TAAATCTA, the binding signal is -0.163 E-score. For the sequence GCACGAAA, the binding signal was 0.091 E-score. On to TCCCCGCA, for which the binding signal came to 0.0113 E-score.

For ACGAAAAC, the binding signal is -0.0287 E-score. In the case of GACTGGAA, the binding signal is -0.186 E-score. As for GAAGCTCA, the binding signal was -0.335 E-score. GAAAGAAA: the binding signal is -0.221 E-score.

GCCAAAGA: the binding signal was -0.214 E-score. As for GCCATTCC, the binding signal was -0.0898 E-score. Turning to ACCCCAGC, the binding signal came to 0.235 E-score. As for AGGCGCCA, the binding signal is -0.197 E-score. Turning to TAAATTAA, the binding signal was -0.186 E-score.

Take AATTAAAC: the binding signal was -0.0327 E-score.

Consider CTGCTACA, for which the binding signal was determined as 0.146 E-score. As to ACGGTAGT, the binding signal was -0.0511 E-score. For the sequence AGGAATGG, the binding signal is -0.0759 E-score. As for ACGATGGA, the binding signal came to 0.0544 E-score.

As for TGTGAACA, the binding signal amounted to 0.327 E-score. For CACCCTTA the value was 0.263 E-score; for GTACATAC, 0.141 E-score; for CCTTGACA, 0.253 E-score. For ATACCGAC the value was 0.173 E-score; for TCGAGCAA, -0.165 E-score. On to CTGGAGAC, for which the binding signal was -0.067 E-score.

With CCATCTCA, the binding signal was -0.0451 E-score. For GCAGCTGC the value was -0.289 E-score. On to GTATATTA, for which the binding signal amounted to 0.134 E-score. In the case of GGCGAAGA, the binding signal was -0.000985 E-score. With ATGGCCCC, the binding signal is -0.0495 E-score. For the sequence ATCCAGGG, the binding signal was -0.0101 E-score. ATCAGAAG: the binding signal is -0.15 E-score. To GACTCAAC belongs -0.0127 E-score; to AGGGCGTG, 0.169 E-score. To CCCCTTCG belongs 0.0545 E-score. Take CGCCTCAC: the binding signal is -0.112 E-score. In the case of CGGGTCAC, the binding signal was found to be 0.246 E-score. For ACAGTAAC the value was -0.131 E-score; for AATGAGAC, -0.239 E-score; for ACGGCCTA, 0.00957 E-score. As for ATGGGTTC, the binding signal is -0.0503 E-score. Regarding CAAGTAGG, the binding signal was 0.0998 E-score. Regarding GAAACTGC, the binding signal is -0.122 E-score.

As for CTCGCAGA, the binding signal is -0.0285 E-score. Take ACTATGTG: the binding signal is 0.17 E-score. ACACTCTC: the binding signal was 0.391 E-score. Consider AGCTCGAG, for which the binding signal is -0.0947 E-score. For TAGGTGAA the value was -0.0826 E-score.

Consider GATCTGGC, for which the binding signal was -0.0505 E-score. For CAGTACTC, the binding signal is -0.13 E-score.

In the case of ATCTTACA, the binding signal amounted to 0.262 E-score. To CCCGAGAA belongs 0.0289 E-score. With ATTACGAC, the binding signal came to 0.037 E-score. Regarding CTCCGGGA, the binding signal worked out at 0.0182 E-score. As to AAGTTTGT, the binding signal is -0.174 E-score.

For the sequence CACACCCA, the binding signal turned out to be 0.382 E-score. To AGTGGGGC belongs 0.0484 E-score; to CTCAACTC, -0.19 E-score; to ATCGGTAA, -0.0123 E-score. For GAGTGGCA the value was -0.166 E-score; for TCGCCAAA, -0.284 E-score; for ATCCCGGG, 0.209 E-score. With ACGAGAGT, the binding signal came out at 0.0232 E-score. With AACCAACT, the binding signal was 0.00094 E-score. Regarding GTGCTTGA, the binding signal worked out at 0.186 E-score. To GGGGGCCA belongs -0.115 E-score; to CTCTTAAA, -0.275 E-score; to ATCACAAC, -0.0409 E-score. As for ATACATCC, the binding signal turned out to be 0.122 E-score. Take AATATTAG: the binding signal was found to be 0.133 E-score.

AGTTTTGA: the binding signal was 0.0278 E-score. As for AGTCACCA, the binding signal amounted to 0.0485 E-score. For the sequence TAGTACGA, the binding signal is -0.0995 E-score. Turning to CGGTAACA, the binding signal is 0.085 E-score. For ACGCGACC, the binding signal stood at 0.149 E-score. As to ATAAAAAC, the binding signal was -0.0998 E-score. For the sequence AGTATCAA, the binding signal worked out at 0.126 E-score. For CTAATGAA the value was -0.0223 E-score; for GGGTTAAC, 0.103 E-score; for AAAACACT, 0.301 E-score. With GTGTAAGA, the binding signal stood at 0.411 E-score.

Take AAAAGTGC: the binding signal was -0.203 E-score.

AACGCAGT: the binding signal was -0.201 E-score. Take TCCGTAGA: the binding signal is -0.174 E-score. As to GAAGGCAC, the binding signal was -0.0147 E-score. As for CGCAGTTA, the binding signal is -0.232 E-score. Consider AGCAGCAT, for which the binding signal was -0.263 E-score. On to CAGGTGCG, for which the binding signal came to 0.131 E-score.

For the sequence TCGATTAA, the binding signal was 0.141 E-score. As to AGACACGC, the binding signal came to 0.346 E-score. As to GCGAATAC, the binding signal is -0.0152 E-score. CAGTCTCG: the binding signal is -0.307 E-score. As to CATACTTC, the binding signal is -0.105 E-score. In the case of TGGTGAAA, the binding signal is -0.0929 E-score. For ATGTCAAT the value was -0.237 E-score; for TGCCGTAA, -0.18 E-score. In the case of GGATTGAA, the binding signal is -0.0689 E-score. As to CCGTCTCC, the binding signal is 0.13 E-score. With CCCCTGTC, the binding signal came out at 0.0769 E-score. CGCCCGTC: the binding signal came out at 0.111 E-score. For GATGGCGA, the binding signal was -0.164 E-score.

Regarding CGCAACGC, the binding signal was -0.16 E-score.

Turning to GGATTCAA, the binding signal is 0.0574 E-score. In the case of AATTATGC, the binding signal was -0.287 E-score. For AGAGACCA the value was -0.242 E-score. Take CACTATCG: the binding signal came out at 0.104 E-score.

Regarding TACCCATA, the binding signal stood at 0.125 E-score.

On to CGATTTAC, for which the binding signal was found to be 0.0095 E-score. To TGAAGACA belongs 0.106 E-score; to AATCATTG, -0.164 E-score. As for CTTCACAC, the binding signal was found to be 0.278 E-score.

TCCTTACA: the binding signal came to 0.222 E-score. For the sequence AAGCGTCC, the binding signal was 0.127 E-score. With AATACACG, the binding signal came to 0.379 E-score. As for CCACGCAG, the binding signal was 0.0436 E-score. As for GCGGAGGA, the binding signal is -0.33 E-score. As for ACAGGTGG, the binding signal stood at 0.0387 E-score. For AGTCAGAT the value was 0.0522 E-score; for GGGAGCTA, 0.0723 E-score; for AAGAATCG, -0.0806 E-score. To CACTGCTA belongs 0.138 E-score.

Take GGACCAAC: the binding signal is -0.0864 E-score. To GCCTTCCC belongs -0.169 E-score.

Take CGTGTCTC: the binding signal worked out at 0.338 E-score. In the case of CGCTACGA, the binding signal was -0.0912 E-score. For the sequence CCCACGAC, the binding signal was 0.148 E-score. For CACTGAAG, the binding signal is 0.0466 E-score. For the sequence CTCTACAG, the binding signal was -0.0391 E-score. On to AACATTTA, for which the binding signal is -0.187 E-score. As to CCTGACGA, the binding signal was found to be 0.0033 E-score. As to ATTAGCAA, the binding signal is -0.222 E-score. Regarding CCCCAGCC, the binding signal is 0.0442 E-score. Turning to AAGAATCT, the binding signal is -0.306 E-score. On to ACCCTCCT, for which the binding signal is 0.11 E-score.

As to GAAATACC, the binding signal came to 0.0213 E-score. On to CGGTTCCA, for which the binding signal was -0.15 E-score. To GTGTTATA belongs 0.432 E-score. Take AAGTTATT: the binding signal is -0.0997 E-score.

For the sequence GATCGCGC, the binding signal was 0.098 E-score.

In the case of GCTTTAAA, the binding signal was -0.181 E-score. As to ATGCATTC, the binding signal is -0.209 E-score. On to CTTTACTA, for which the binding signal is -0.106 E-score. Consider GAGGGGAA, for which the binding signal was -0.000465 E-score.

Consider CCGGGACC, for which the binding signal was determined as 0.00585 E-score. For the sequence ACCCGTAT, the binding signal amounted to 0.131 E-score. With CAGGGGGC, the binding signal was -0.0732 E-score. As for CTCATGCC, the binding signal was -0.224 E-score. On to GGCACCTA, for which the binding signal turned out to be 0.0451 E-score. On to AAGACCGG, for which the binding signal was -0.0295 E-score. For TACACGGA, the binding signal came to 0.402 E-score. TACGTTAA: the binding signal is -0.106 E-score. For ACATCAGT the value was -0.0564 E-score; for ATGATCGC, -0.0795 E-score.

As for CCGAAAGC, the binding signal turned out to be 0.0382 E-score. For AGCCGATA, the binding signal was -0.244 E-score.
